# Numbering of substitutions follows the chain as printed. The list shows a part of the results.
# T1: UNK ZnF1-3 (human, UniProt Q9C0B0 31-174)
# T1 sequence: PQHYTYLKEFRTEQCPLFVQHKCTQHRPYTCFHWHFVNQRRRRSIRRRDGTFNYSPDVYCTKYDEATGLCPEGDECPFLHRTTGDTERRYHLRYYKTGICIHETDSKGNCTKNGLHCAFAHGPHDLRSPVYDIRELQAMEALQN
# B1: chr2:29001751:29001752:+_ENSG00000213639_ENST00000296122|perfect_dup|FALSE|FALSE (ssRNA)
# RNA: GGGAGUUCUACAGUCCGACGAUCAGCCAAUAGCAAACAAAUGGUUUCCAAAGACUGCUUUCCUCUGUCCACAUAAUCUCCUAAGAAAAGAUAGUUGGCUUCUGGUGGGAAACCUCCAUAUUCAAAUAAUCUCAGUAAAUCUGUCAACAGAGGAUUGAGCAUCA
# B2: chr7:135834168:135834169:+_ENSMUSG00000042105_ENSMUST00000151237|mus_mus|FALSE|FALSE (ssRNA)
# RNA: GGGAGUUCUACAGUCCGACGAUCUUCGUCAUCAUAAUAGGCCACAUAGUAGGCAGCGUUAGACAGCAGCAGCAGCACUUCCACAUCUCUGUGCGCAGCGUCAGUGAGGCGUGCAAGUCUGGAGAGCUUUCACACCGGCACAGUCAACAGAGGAUUGAGCAUCA
# B3: 43297161_43298123_788_CDS_ENSG00000112972_ENST00000433297|human|control|control (ssRNA)
# RNA: GGGAGUUCUACAGUCCGACGAUCACUGAGGUAGCACUGUAUGGAGAGUUUUCCAUCUACUAUAGGAUAUUCAGAUAGCAUAUCAGGCUUGUAAAAAUCAUAGGCAUGUUGCAUAUGUGUCCCACGAAGCCCUCGUUCAAAAAUCAACAGAGGAUUGAGCAUCA
# B4: chr1:163112212:163112213:-_ENSG00000143248_ENST00000313961|hu_hu|hu_hu_hu_mus_False|28_88 (ssRNA)
# RNA: GGGAGUUCUACAGUCCGACGAUCUUUUAUUAUCAGUAAGAGUGAGUCACAUAGUACGCAAAGUAUUGGAUACAAUAAUCAGGAAACAAACACUAUUGGUCCAGAAUUUAAAAUAUAAUGAGCGAAGUGCUGGCACAGGACUUACAACAGAGGAUUGAGCAUCA
# B5: chr3:119450855:119450856:-_ENSMUSG00000028134_ENSMUST00000029780|mus_hu|mus_mus_mus_hu_False|48_48 (ssRNA)
# RNA: GGGAGUUCUACAGUCCGACGAUCUGUGGUGCCACUAAGAGGAGUAUUUGCUGUCUGGACAGCUGUCACAGCUUGAAGAACUGCCUGCGCACGUUGGUUUAAUGUAUUAUCUGUCUUUAGUUCUUUGUGAUUCGAGUACUGGAUCAACAGAGGAUUGAGCAUCA
# B6: chr17:57814845:57814846:+_ENSG00000062716_ENST00000262291|hu_hu|FALSE|FALSE (ssRNA)
# RNA: GGGAGUUCUACAGUCCGACGAUCCUGUUUCUCUAUACGUUGCACAUACUGUUGAUGCACUCCUUCAACAUAAUACGUAGCUAUAAGCACAGCAAGCAGCAGUAAAAAAGACACCACAAUGCUUUGACGAUGCCAUAAUUUUGACAACAGAGGAUUGAGCAUCA
# B7: chr17:36096658:36096659:-_ENSMUSG00000038762_ENSMUST00000043757|mus_hu|FALSE|FALSE (ssRNA)
# RNA: GGGAGUUCUACAGUCCGACGAUCUUGCUUCUCAUACUGUUUCAGCAGUUCUUUCUGCUUCUGCUGGUACAUCUUUUUGAAGGUCAUGUAAUUGCCCCUAUAGUAGUGGAGCCGCUGGGCAUCGAGGUGGAUGAUAUCAGUGCACAACAGAGGAUUGAGCAUCA
# B8: chr5:128440902:128440903:+_ENSG00000066583_ENST00000173527|hu_mus|hu_hu_hu_mus_True|38_88 (ssRNA)
# RNA: GGGAGUUCUACAGUCCGACGAUCUUGAACGGUGCUGCCAAGUCCUUUAGGGUAUUGUUCCGUUAUGAUAACUGGAAUCCCUAAGAUCCGAGCUCCUUGCAACAAUCUCUGUCCCACACUAAUGAUGUCCCCAAAGUAUUUGAUCAACAGAGGAUUGAGCAUCA
# B9: chr5:128440902:128440903:+_ENSG00000066583_ENST00000173527|hu_mus|hu_hu_hu_mus_True|68_68 (ssRNA)
# RNA: B8 RNA with A48G, U72A, A104G
# B10: chr8:11702082:11702083:-_ENSG00000164733_ENST00000533455|hu_hu|motif|central (ssRNA)
# RNA: GGGAGUUCUACAGUCCGACGAUCCGCUGUUCCACUGGCUCACCCACAUGAUUAGCAGAGUGCACGAAAAAAUAAAACUUCGGUUAAAGAAUCAUGCUGAGCACAAGAUCAGAGAGGUUGUGACAUUGCAAACUCGAUAGAUGCCAACAGAGGAUUGAGCAUCA
# B11: chr1:220276048:220276049:+_ENSG00000067704_ENST00000302637|hu_hu|hu_hu_hu_mus_True|48_88 (ssRNA)
# RNA: GGGAGUUCUACAGUCCGACGAUCGCAAAUUGCCUGGUUGGCGGGAAUCGUCCAAGGCUGGGUGGUCCAAACUAAAACGCUAACAGGAGAUGAACCAUCUGUAAGAGACUCCAACUUCGGAGGAGGUCUCAGGAGGGGGAAUCUCAACAGAGGAUUGAGCAUCA
# B12: chr22:46712247:46712248:+_ENSG00000075218_ENST00000454366|hu_mus|FALSE|FALSE (ssRNA)
# RNA: GGGAGUUCUACAGUCCGACGAUCGGUAGACACGGCCUCUGUCUUGCAGCUCAGAUAGGAGUCCCGUCGUUUUAUGCUGACAGUUUUAUUCAACUGAGGUGUCUCGGUGUCGGGGUCCAGCCUUGGUCCUCUUUGCUCUGGAGUCAACAGAGGAUUGAGCAUCA
# B13: chr1:225977196:225977197:+_ENSG00000143742_ENST00000304786|hu_hu|FALSE|FALSE (ssRNA)
# RNA: GGGAGUUCUACAGUCCGACGAUCAUUUCCAAAAGUAAAUAAAGGCUUUCUAACUGAAAACAUUUGCAUCCCUAGCUCUCUAAAGUAAUUAAAAAGAAAAUUACAAAAAAUGACCUCUAAGCUUCUGAACAGCCCACUUAGUUACAACAGAGGAUUGAGCAUCA
# B14: chr14:100422286:100422287:-_ENSMUSG00000072294_ENSMUST00000097079|mus_mus|FALSE|FALSE (ssRNA)
# RNA: GGGAGUUCUACAGUCCGACGAUCAGGGGAGGUCCUGGCUUUGUUGAUUGACAAGUCCACUGGCUCAGUUUGUGUCUGAAAGUGAUCUACAGGCAGUGAGUCCUCUGGGGGCUCCCCUUUCACAUUAUUUAGCAAGAGGGGGACCAACAGAGGAUUGAGCAUCA
# Target: T1, UNK ZnF1-3
# Experiment: nsRBNS (natural sequence RNA bind-n-seq); RBNS binding buffer (assumed for nsRBNS): 25 mM Tris pH 7.5, 150 mM KCl, 3 mM MgCl2, 0.01% Triton X-100, 500 ug/ml BSA, 20 U/ml SUPERase-In, 4 C; UNK is unkempt and MSI1 is Musashi-1; names of the RNAs are library labels; protein concentration not given here; high values mean tight binding
row,Binder,binding signal [enrichment R]
1,B1,1.88
2,B2,0.98
3,B3,1
4,B4,2.29
5,B5,0.746
6,B6,1.01
7,B7,0.56
8,B8,0.769
9,B9,0.828
10,B10,1.87
11,B11,1.31
12,B12,0.585
13,B13,1.37
14,B14,0.761

# Source: article PMC12136788
